Assay results published in PubChem BioAssay AID1346428 (National Center for Advancing Translational Sciences (NCATS), 2018).
Among all 48,000 compounds or so, about 1,200 (2.5%) were called active. Roughly 2% stayed inconclusive and do not appear here.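 Rule for the calls: active = activation of at least 60% and not above a set upper limit (about 1 call in 100 departs from these limits); inconclusive = activation of 40% to 60%, or above that upper limit; inactive = activation under 40%.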 The list shows a part of the results.

Molecular target: Probable G-protein coupled receptor 32 (Homo sapiens) (UniProt O75388)
Experiment: qHTS for Agonists of Human Resolvin D1 Receptor DRV1; note: 0% is about no effect
Conditions: CHO-K1 GPR32 beta-arrestin PathHunter luminescence, 90 min; at 76.9 µM; hits give high values; zero percent set by DMSO-only wells
Procedure, shortened: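 Using DMSO wells as EC0, agonist-induced signal was taken as chemiluminescence from beta-Gal reconstituted upon beta-arrestin recruitment to GPR32 in CHO-K1 cells after 90 min compound treatment.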

Sequence of UniProt O75388 (O75388 whole entry, looked up): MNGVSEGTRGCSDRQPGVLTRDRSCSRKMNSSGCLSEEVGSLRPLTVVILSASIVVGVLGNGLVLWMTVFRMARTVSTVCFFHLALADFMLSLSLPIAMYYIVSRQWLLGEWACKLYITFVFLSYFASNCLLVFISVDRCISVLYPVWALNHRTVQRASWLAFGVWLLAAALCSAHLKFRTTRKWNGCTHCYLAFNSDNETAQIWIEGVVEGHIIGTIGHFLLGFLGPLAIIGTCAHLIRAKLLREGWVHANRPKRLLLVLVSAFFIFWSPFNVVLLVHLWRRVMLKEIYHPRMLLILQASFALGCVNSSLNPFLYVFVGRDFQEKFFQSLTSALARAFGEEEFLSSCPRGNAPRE

activation, inactive:
Cn1c(=O)nc2n(-c3ccc(Cl)c(Cl)c3)c3cc(Cl)ccc3cc-2c1=O -7.96%
CC1=C(C(=O)OCC2CCCCC2)C(c2ccccc2F)CC(=O)N1 (stereo not drawn) 39.3%
COc1ccccc1CNC(=O)C1CCCN(c2nnc(-n3c(C)ccc3C)s2)C1 (stereo not drawn) 15.2%
Cc1cc(O)cc2c1O[C@](C)(CCC[C@H](C)CCC[C@H](C)CCCC(C)C)CC2 -4.96%
Cc1ccccc1CNS(=O)(=O)c1csc(C(N)=O)c1 11%
Cc1nc2nc(SCC(=O)NCCc3ccccc3)nn2c(C)c1Cc1c(F)cccc1Cl -8.47%
COc1ccc(C(=O)N(Cc2ccc(C(C)C)cc2)C2CCS(=O)(=O)C2)cc1 (stereo not drawn) -15.4%
Cc1ccc(C(C)C)c(OCC(=O)N2CCC(c3nc4ccccc4o3)CC2)c1 -18.4%
CCOc1ccccc1C(=O)Nc1ccc2c(c1)N(C)C(=O)c1ccccc1S2 19.6%
CCn1c(SCCOc2ccccc2F)nc2ccccc21 -4.98%
Cc1c(C2=CCN(S(=O)(=O)c3ccc(CC(C)C)cc3)CC2)c2ccccc2n1CC(=O)N1CCCC1 -10.5%
Cc1nn(-c2ccc(N3CCOCC3)nn2)c(C)c1CCC(=O)NCc1ccc(OC(C)C)cc1 0%
Cc1ccc(CNC(=O)Cc2coc3cc(C)cc(C)c23)cc1 5.97%
Cc1ccc(NC(=O)Nc2nnc(N3CCCC3)s2)c(C)c1 2.59%
CCCCN(C)C(=O)C1CCCN(c2ncnc3onc(-c4ccc(F)cc4)c23)C1 (stereo not drawn) -11.8%
Cc1cccc(N2CCN(C(=O)CSCc3ccc(F)cc3)CC2)c1C -18.6%
COc1ccc(CNC(=O)CCC(=O)N2CC3CCCN3c3ccccc32)cc1 (stereo not drawn) -32%
COc1ccccc1CNC(=O)c1ccc(CS(=O)(=O)c2ccccc2C)o1 17%
O=C(NCc1ccccc1)c1ccc(NC(=O)c2nsc3ccccc23)cc1 -15.3%
CCOc1cccc(CC(=O)Nc2ccc3nc(N4CCCCC4)cc(C)c3c2)c1OCC -18.4%
CCCNC(=O)c1ccc(-n2c(-c3ccccc3)cc3c2CCCCC3)cc1 -35.3%
COc1cc(CN(CC2CCCO2)C(=O)c2ccc(F)cc2)cc(OC)c1OC (stereo not drawn) -17.4%
CC(=O)N1CCCc2cc(S(=O)(=O)N3CCC(C(=O)NCc4ccc(N(C)C)cc4)CC3)ccc21 3.08%
Cc1ccccc1-c1noc(C(C)NC(=O)c2ccco2)n1 (stereo not drawn) 15.9%
CCC(=O)N1CCc2cc(S(=O)(=O)NCCC(=O)NCc3ccccc3Cl)ccc21 4.11%
COc1ccccc1CNC(=O)C(CC(C)C)NS(=O)(=O)c1ccc2c(c1)oc(=O)n2C (stereo not drawn) -2.42%
Cn1c(=NC(=O)c2ccc3c(c2)OCCO3)sc2cc(S(C)(=O)=O)ccc21 2.97%
Cc1cc(Br)ccc1NC(=O)CCS(=O)(=O)c1cccc2nsnc12 15.9%
CC(=O)NCCNc1nc2c(S(=O)(=O)c3ccc(C)c(C)c3)nnn2c2ccc(Cl)cc12 -16.4%
COC(=O)c1ccc(-n2nnc(-c3nc(-c4ccc5c(c4)OCO5)no3)c2C)cc1 3.92%
CC(C)c1nc2ccc(C(=O)NCCCN3CCN(c4ccccc4F)CC3)cc2o1 -8.08%
CCN(C(=O)CN(C)S(=O)(=O)c1ccc2c(c1)c(=O)n(C)c(=O)n2C)c1ccc(OC)cc1 14.6%
CCOC(=O)c1ccc(NC(=O)C2CCCN(c3ccc(Sc4ccc(C)cc4)nn3)C2)cc1 (stereo not drawn) -8.64%
Cc1ccc(C2c3c(oc4ccccc4c3=O)C(=O)N2c2ccc(C)cn2)cc1 (stereo not drawn) -9.62%
CCOc1ccc2nc(NC(=O)CS(=O)(=O)c3ccc(Cl)cc3)sc2c1 23.8%
N#Cc1ccc(CN2C(=O)c3ccccc3Sc3ccc(C(=O)OCc4ccco4)cc32)cc1 -0.811%
COc1ccc(Nc2cc(C(=O)NC3CCCC3)c3ccccc3n2)c(OC)c1 22.6%
CCNC(=O)Cn1c(-c2cccs2)cc2ccccc21 -18%
Cc1ccc(CN(C(=O)Nc2cccc(Cl)c2)c2ccccn2)cc1 4.86%
COc1ccc(NC(=O)c2nnn(Cc3nc(-c4cc(Br)ccc4OC)oc3C)c2C)cc1 3.64%
CCOc1cccc(C2c3c(oc4ccc(F)cc4c3=O)C(=O)N2CCc2ccc(OC)cc2)c1 (stereo not drawn) 10.5%
COc1ccc(NC(=O)C2CCN(S(=O)(=O)c3ccc4c(c3)CCCC(=O)N4)CC2)cc1Cl 1.95%
Cc1oc(C)c2c(=O)cc(-c3ccc4c(c3)OCO4)cc(OC(=O)c3ccccc3Br)c12 -8.78%
COc1cc(OC)c(NC(=O)c2cc(CN3CCOCC3)on2)cc1Cl -7.4%
CCn1ccc2cc(S(=O)(=O)N3CCCN(C(=O)NCC(C)C)CC3)ccc21 14.6%
COc1cc(/C=C(\C#N)c2nc3ccccc3c(=O)[nH]2)cc(OC)c1OC -0.0837%
Cc1ccc(Cn2c(-c3ccccc3)nc3ccccc32)cc1 -3.14%
Cc1ccc(-c2nc3ccccc3n3c(-c4ccccc4)c4c(=O)n(C)c(=O)n(C)c4c23)cc1 -13.8%
COc1ccc(S(=O)(=O)N2CCN(c3ccccc3OC)CC2)cc1-c1noc(C)n1 -12.8%
CCCCNC(=O)c1cc(Sc2ccc(OCC)cc2)nc2ccccc12 -7.14%
CCOc1ccccc1NC(=O)Cn1ccn(-c2ccccc2)c(=O)c1=O -5.32%
COc1ccccc1N1CCN(c2csc3ccc(Cl)cc3c2=O)CC1 -37.9%
Cc1ccc(C)c(Cn2c(=O)n(CCCCC(=O)NCc3ccccc3Cl)c(=O)c3ccccc32)c1 -8.74%
CCn1ccc2cc(S(=O)(=O)N3CCC(C(=O)NCc4cccc(C)c4)CC3)ccc21 7.58%
O=C(NCCSCc1ccc(Cl)cc1)C1CCN(S(=O)(=O)Cc2ccccc2)CC1 9.95%
CCn1cc(C(=O)NCc2ccc(C)cc2)c(=O)c2cc(S(=O)(=O)N3CCC(C)CC3)ccc21 1.45%
Cc1ccc(-c2c(C(=O)Nc3ccc(F)c(F)c3)oc(=O)c3ccccc23)cc1 -6.5%
CN(C)c1ccc(CNC(=O)c2cc3cc(S(=O)(=O)N4CCCCC4)ccc3n2C)cc1 -29.4%
O=C(CN1C(=O)C2CCCCN2c2ccc(C(=O)N3CCCC3)cc21)NCc1cccc(Cl)c1 (stereo not drawn) -28.8%
CC(=O)[C@H]1CC[C@H]2[C@@H]3C[C@H](C)C4=CC(=O)CC[C@]4(C)[C@H]3[C@@H](O)C[C@]12C 26.4%
Cc1ccc(Cl)c2sc(NC(=O)CS(=O)(=O)c3ccc(Cl)cc3)nc12 7.15%
CCOc1ccc(CNS(=O)(=O)c2c(C(=O)N3CCCCCC3)c(C)n(C)c2C)cc1OC -8.62%
CCOC(=O)OC(C)OC1=C(C(=O)Nc2ccccn2)N(C)S(=O)(=O)c2ccccc21 (stereo not drawn) -11.4%
CCOC(=O)c1ccccc1NC(=O)c1sc2ncn(Cc3cccc(F)c3)c(=O)c2c1C -12.7%
O=C(O)c1ccc(-n2c(/C=C\c3ccc(O)cc3)nc3ccccc3c2=O)cc1 1.56%
Cc1ccc(C2=Nc3ccccc3N(CC(=O)NCc3ccc(F)cc3)C(=O)C2)cc1C -8.35%
COc1ccc(/C=C(\C#N)c2nc(-c3cc4c(ccc5ccccc54)oc3=O)cs2)cc1O -2.85%
CCn1cc(C(=O)O)c(=O)c2cnc(N3CCCC3)nc21 -1.63%
COc1ccc(C(=O)Nc2cccc(OCc3cc(=O)n4c5c(sc4n3)CCCC5)c2)cc1 -2.38%
Cn1c(=O)c2c(nc3n(-c4ccc(O)cc4)c(-c4ccc(Br)cc4)cn23)n(C)c1=O -2.36%
COc1cn(CC(=O)Nc2cccc(C)c2C)c(CN2CCCCC2)cc1=O -0.948%
Cc1ccc(C)c(NC(=O)CSc2c3c(nc4ccc(Cl)cc24)CCCC3)c1 -10.6%
COc1ccc(OC)c(S(=O)(=O)NCc2cccn2Cc2cccc(C)c2)c1 -21.2%
COC(=O)c1sc(NC(=O)/C=C/c2ccc(OC)c(OC)c2)c(C(=O)OC)c1C -15.6%
COc1ccc(CNC(=O)CSc2nc3ccccc3nc2Cc2ccccc2OC)cc1 -11.6%
COc1ccc(OCc2nc3c4c(-c5ccccc5)c(-c5ccccc5)oc4ncn3n2)cc1 -5.01%
COc1cccc(C(=O)c2cn(CC(=O)NCc3ccccc3)c3nc(C)ccc3c2=O)c1 -9.25%
COc1ccccc1-c1cc(C(=O)Nc2ccccc2C(F)(F)F)no1 35.9%
COc1ccccc1NC(=O)CSc1nc2ccccc2c2nc(-c3ccccc3)nn12 -8.13%
COC(=O)c1cc2c(cc1NC(=O)c1cnn(-c3ccc(C)cc3)c1-n1cccc1)OCO2 -10.1%
CC(C)NC(=O)CCCN1C(=O)CCn2nc(-c3cccn3C)cc21 -5.58%
CCN1CCN(c2cc3c(cc2F)c(=O)c(S(=O)(=O)c2ccccc2)cn3C)CC1 -1.99%
Cc1[nH]c2ccccc2c1C1N2CC3(C)CN1CC(C)(C2)C3=O (stereo not drawn) -4.55%
